Data taken from PubChem BioAssay AID504706 (National Center for Advancing Translational Sciences (NCATS), 2011).
In all, about 320,000 compounds went through this assay and about 200 (0.062%) were called active. The inconclusive results got no clear call from the source; some entries with a clear call stand among them for comparison. Calls follow the shape of the dose curve; as a rule, active = well fitted activation curve with a large enough effect; inconclusive = small, poorly fitted or top-dose-only effect; inactive = no such curve, though single readings can be large or run the other way. Potencies of inconclusive entries are left out as doubtful fits.

Assay: qHTS assay for re-activators of p53 using a Luc reporter; also: nearly all actives have a fitted effect of over 45% in size
Settings: H1299 p53-A138V BP100-luciferase reporter, luminescence, 24 h; series mostly up to 92.2 µM
How it was run: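 H1299 (p53-null), stable ts p53-A138V + BP100-Luc; 1000 cells/well, Opti-MEM/10% FBS; cpd 4 pt, 1:5; 24 h, 37 deg C, 5% CO2; detection reagent 10 min RT; luminescence.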
Potency is read from the fitted curve at half-maximal effect; tags tell the direction and shape of the fitted curve.

| Compound | Potency |
| --- | --- |
| O=C(O)CCSCC(=O)c1ccc2c(c1)OCCO2 | inactive |
| COc1ccc(-c2csc(NC(=S)NC(=O)/C=C/c3ccco3)n2)cc1Br | inactive |
| Cc1nc2nc(NCc3cccs3)nn2c(C)c1Cl | inactive |
| O=C(Nc1ccc(C(=O)N2CCCC2)cc1)c1ccccc1F | inconclusive [activator, single point] |
| O=C1OCCN1C(=O)[C@H]1[C@H](c2ccccc2)C(c2cccc(Cl)c2)=NN1c1ccc(Br)cc1 | inactive |
| O=C(NCc1ccccc1)c1cc2ccc(O)cc2oc1=O | inconclusive [activator, full curve, poor fit] |
| N/C(=N/OC(=O)c1ccc(Cl)cc1)c1ncc([N+](=O)[O-])s1 | inconclusive [activator, partial curve, poor fit] |
| O=C(NCc1ccco1)c1sc2ccccc2c1Cl | inconclusive [activator, partial curve, poor fit] |
| CC(Oc1cccnc1[N+](=O)[O-])C(=O)Nc1ccc(Cl)cn1 (stereo unspecified) | inconclusive [activator, partial curve, poor fit] |
| COc1ccc(C(=O)NC(=S)Nc2cccc(Cl)c2N2CCOCC2)cc1[N+](=O)[O-] | inactive |
| CCc1ccc(-c2nc(CN3CCC(C(=O)NCc4ccco4)CC3)c(C)o2)cc1 | inconclusive [activator, partial curve, poor fit] |
| CCN(CC)c1ccc(/C=N/NS(=O)(=O)c2ccc(C)c([N+](=O)[O-])c2)cc1 | inactive |
| Cc1cc(C(C)(C)C)ccc1NC(=O)CC(C)(C)CC(=O)O | inconclusive [activator, partial curve, poor fit] |
| CCCOC(=S)NC(=O)c1sc2ccccc2c1Cl | inactive |
| Cc1c(CN(C)C(=O)CSc2nc(-c3ccco3)cc(C(F)(F)F)n2)cnn1C | inactive |
| CC(C)c1cc(-c2cc(C(=O)NCc3ccccc3)on2)nc(NCC2CC2)n1 | inactive |
| CCSc1nnc(NC(=O)C(C)(C)C)s1 | inconclusive [activator, partial curve, poor fit] |
| C/C=C\C=C\C(=O)N1CC2(CC(c3cccc(NC(=O)COc4ccc(Cl)cc4)c3)=NO2)C[C@H]1C(N)=O (stereo partly specified) | inactive |
| Cc1cc(SCC(=O)Nc2ccc(O)cc2)n2nc(C)c(-c3ccccc3)c2n1 | inactive |
| CN(C)C1(CNC(=O)C2CCN(S(=O)(=O)c3cccc(C(F)(F)F)c3)CC2)CCCCC1 | inconclusive [activator, partial curve, poor fit] |
| CC(C)c1ccc(N2C=Nc3ccc(C(C)C)cc3C2)cc1 | inactive |
| Cn1c(/C(C#N)=C/c2cccc(O)c2)nc2ccccc21 | inconclusive [activator, single point] |
| O=C(Cc1nc2ccccc2s1)c1ccc(O)cc1O | inconclusive [activator, partial curve, poor fit] |

| Compound | Potency |
| --- | --- |
| S=C(Nc1ccc(-c2nc3ccccc3[nH]2)cc1)Nc1cccnc1 | inconclusive [activator, partial curve, poor fit] |
| COc1ccc2c(c1)c(=O)oc1cc(OCC(=O)N3CCc4ccccc4C3)ccc12 | inactive |
| CCOC(=O)CC(=O)COc1nc2cc3c(nc2o1)CCCC3 | inconclusive [activator, single point] |
| CCOC(=O)/C=C/C(=O)Nc1ccccc1C(=O)NC1CCCCC1 | inconclusive [activator, single point] |
| N/C(=N\NC(=O)c1cccc(F)c1)c1cc2ccccc2oc1=O | inactive |
| Cc1ccc(NC(=O)CC(=O)c2ccccc2)cc1C | inconclusive [activator, full curve] |
| CCCOc1cccc(C(=O)NC(=S)Nc2cccc(C(F)(F)F)c2)c1 | inactive |
| CCc1ccc([C@@H]2CC=C(C(=O)O)[C@H](c3ccccc3F)N2S(=O)(=O)c2ccc(C)cc2)cc1 | inactive |
| COc1ccc(COC(=O)C2CCN(S(=O)(=O)c3ccc(C)cc3)CC2)cc1 | inactive |
| CCOC12NC(=O)CC(=O)N1C(c1ccccc1)=CS2 (stereo unspecified) | inconclusive [activator, partial curve, poor fit] |
| CCC1CCc2sc(C(=O)O)cc2C1 (stereo unspecified) | inactive |
| CCCC(=O)n1nc(-c2ccco2)nc1SCc1ccccc1 | inconclusive [activator, full curve, poor fit] |
| O=C(Nc1ccc(Cl)c(Cl)c1)N1CC=CCC1 | inconclusive [activator, partial curve, poor fit] |
| CN(C)c1ccc(N=c2sc3ccccc3n2C)cc1 | inconclusive [activator, partial curve, poor fit] |
| COc1c(C)cccc1C(=O)Nc1ccc(N2CCN(S(C)(=O)=O)CC2)cc1 | inconclusive [activator, partial curve, poor fit] |
| CNc1nnc(-c2cc3cc(Cl)ccc3oc2=O)s1 | inactive |
| C(=C\c1ccccc1)/C=N/Nc1nc2ccccc2s1 | inconclusive [activator, partial curve, poor fit] |
| O=C(Cc1cccs1)Nc1cccc(-c2nc3cc4ccccc4cc3[nH]2)c1 | inconclusive [activator, partial curve, poor fit] |
| O=C(NNS(=O)(=O)c1ccc2ccccc2c1)NC1CCCCC1 | inactive |
| Nc1ncnc2c1ncn2[C@@H]1O[C@H](CNCc2cccc(C#Cc3ccccc3)c2)[C@@H](O)[C@H]1O | inactive |
| NC(=O)c1cc([N+](=O)[O-])ccc1NCC1CCCCC1 | inconclusive [activator, single point] |
| COc1cccc(CNc2ccc3c(c2)ncn3C(C)C)c1OC | inconclusive [activator, partial curve, poor fit] |
| COc1cc2c(cc1NC(=O)Cc1ccc(C)cc1)oc1ccccc12 | inconclusive [activator, full curve, poor fit] |
